# In the supplement of paper PMC10338343:
# ± gives the standard deviation. The list shows a part of the results, in another mix than the full data.
# Test system: MIWI (PIWIL1) piRISC loaded with piRNA #1 (30 nt)
# Test: pre-steady-state target cleavage rate (min^-1); MIWI and MILI are mouse PIWI proteins and EfPiwi is from a freshwater sponge; tags in brackets are library labels; higher = faster piRNA-guided slicing of the target
# Conditions: guide: piRNA #1 5'p-UGAGGUAGUAGGUUGUAUAGUAUCCAGAGG; auxiliary factor: 500 nM mouse GTSF1
# How it was run: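 A burst-and-steady-state fit was used to obtain the pre-steady-state cleavage rate. The input data were sequencing reads of uncleaved targets, normalised to depth and to weakly complementary targets, from a […] transcribed, DNA-blocked target RNA library mixed with 1 nM active affinity-purified piRISC holding one synthetic guide, with or without 500 nM GTSF1 partner protein, in HEPES–potassium acetate buffer at 33 °C for 0–8 or 0–960 min. Three trials were pooled and k3 was capped at 0.0001 min^-1.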
# 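Further: 1 nM active piRISC with 0.1 nM target library at 33 °C single turnover.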
row,Sequence,pre-steady-state target cleavage rate
1,GGAGACCAUUACUAUACAACCUACUACCUCA,1.59 ± 0.12
2,GGACUGGAUACUAUACAAGCUACUACCUCA,1.12 ± 0.06
3,GGAGUGGAUACUAAUCAACCUACUACCUCA,1.2 ± 0.11
4,GGUCUGCAUACUAUUCAACCUACUACCUCA,1.65 ± 0.12
5,CCUCUGGAUACAAUUCAACCUACUACCUCA,1.69 ± 0.1
6,GCUCUGGAUUCUAUACAACGUACUACCUCA,0.761 ± 0.048
7,GGAGACCUAUCUAUACUUCCUACUACCUCA,0.00405 ± 0.0035
8,GCUCUGGAUAGUAUACAACCUACUUCCUCA,0.527 ± 0.043
9,GCUGUGGAUACUAAACAACCUACUACCUCA,1.76 ± 0.13
10,GGAGAGGAUUCUAUACAACGUACUACCUCA,0.559 ± 0.029
11,GGAGACCUAUGAUAACUUGCUACUACCUCA,< 0.0001
12,GGAGACCUAUCUAUACAACCUACUACGUGA,0.378 ± 0.036
13,GGAGACGAUACUAUACAACCUACAUCCUCA,0.342 ± 0.029
14,CCUCAGGAUACUAUACAACCUACUACCUGA,0.144 ± 0.034
15,GGAGACCUAUGAUAACAACCUAGUACCACA,< 0.0001
16,GCUCUGGAUACUAUACAACCUAGUUCCUCA,0.327 ± 0.062
17,GGAGAGCAUACUAUACAACCUACUUCCUCA,0.452 ± 0.065
18,GGACGUGGAUACUAUACAACCUACUACCUCA,1.85 ± 0.11
19,GGUCAGGAUACAAUACAACCUACUACCUCA,1.69 ± 0.1
20,GGACUCGAUAGUAUACAACCUACUACCUCA,1.45 ± 0.13

row,Sequence,pre-steady-state target cleavage rate
1,GGAGACCUAUCUAUACAACCUACUUCGUCA,0.0335 ± 0.0088
2,GCUCUGGAUACUAUUCAACCUACUACCUCA,1.87 ± 0.11
3,GGAGACCCUACUAUACAACCUACUACCUCA,1.66 ± 0.12
4,CCUCUGGAUACUAUACAAUCCUACUACCUCA,0.013 ± 0.0047
5,GGAGACCUAUGUAUACAACCCACUACCUCA,0.0425 ± 0.0067
6,GGAGACCAUACUAUACAACCUACUUGGUCA,0.00584 ± 0.0035
7,GCUCUGGUUACUAUACAACGUACUACCUCA,1.12 ± 0.063
8,CCUCUGGAUACUAUAUCAACCUACUACCUCA,0.922 ± 0.1
9,GCUCUGGAUAGUAUACAACCAACUACCUCA,0.127 ± 0.015
10,GCUCUGGAUACUUUAGAACCUACUACCUCA,0.909 ± 0.055
11,CCUCUGGCAUACUAUACAACCUACUACCUCA,2.31 ± 0.12
12,GCUCAGGAUACUAUACAACCUACUACCUGA,0.681 ± 0.042
13,CGUCUGGAUACUAUACAACCUACUACCACA,1.72 ± 0.14
14,GGAGAGGUUACUAUACAUCCUACUACCUCA,0.566 ± 0.042
15,GGUCUGGAAUCUAUACAACCUACUACCUCA,1.57 ± 0.1
16,GGUCUGGAUACUAUAGUACCUACUACCUCA,1.21 ± 0.098
17,GGAGACCUAUGAUUACAACCUAGUAGCUCA,< 0.0001
18,GGACUGGAUAAUAUACAACCUACUACCUCA,1.55 ± 0.12
19,GGAGAGGAUACUAUACAAUCUACUACCUCA,0.34 ± 0.016
20,GGAGAGGAUACUAUACAACCUAGCUACCUCA,0.126 ± 0.013
